# From PubChem BioAssay AID488969 (Vanderbilt High Throughput Screening Facility, 2010)
# In all, about 110,000 compounds were measured (“z-score”: median about -0.1, highest 2% from about 2 on). The list shows a part of the results. Calls of active or inactive are those of the source.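 How the source made its calls: active means z-score in the third read window above 3 or below -3; inactive means the rest.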
# Biological target: Metabotropic glutamate receptor 8 (Rattus norvegicus) (UniProt P70579)
# UniProt P70579, sequence (P70579 whole entry, looked up): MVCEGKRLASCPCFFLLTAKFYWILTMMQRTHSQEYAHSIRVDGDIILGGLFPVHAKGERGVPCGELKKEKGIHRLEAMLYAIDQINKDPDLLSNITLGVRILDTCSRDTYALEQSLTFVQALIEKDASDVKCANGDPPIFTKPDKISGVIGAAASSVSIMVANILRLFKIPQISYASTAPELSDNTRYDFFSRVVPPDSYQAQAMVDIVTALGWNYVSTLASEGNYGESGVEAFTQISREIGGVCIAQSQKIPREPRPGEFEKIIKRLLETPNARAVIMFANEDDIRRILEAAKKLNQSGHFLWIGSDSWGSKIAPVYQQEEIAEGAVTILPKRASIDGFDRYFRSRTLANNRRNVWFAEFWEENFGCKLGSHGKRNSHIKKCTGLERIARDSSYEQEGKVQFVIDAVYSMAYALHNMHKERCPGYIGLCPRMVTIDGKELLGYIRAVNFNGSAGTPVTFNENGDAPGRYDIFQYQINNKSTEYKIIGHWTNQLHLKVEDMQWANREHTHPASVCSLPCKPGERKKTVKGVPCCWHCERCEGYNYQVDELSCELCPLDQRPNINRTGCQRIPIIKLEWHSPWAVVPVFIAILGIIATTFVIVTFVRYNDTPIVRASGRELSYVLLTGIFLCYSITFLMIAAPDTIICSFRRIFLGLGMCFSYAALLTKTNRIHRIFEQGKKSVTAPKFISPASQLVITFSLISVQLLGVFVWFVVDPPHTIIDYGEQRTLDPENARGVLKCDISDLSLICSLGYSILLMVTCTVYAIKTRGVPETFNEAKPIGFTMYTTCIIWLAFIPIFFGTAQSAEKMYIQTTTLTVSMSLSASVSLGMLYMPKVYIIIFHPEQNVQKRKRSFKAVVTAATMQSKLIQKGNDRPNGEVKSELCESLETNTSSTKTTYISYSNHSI
# Test: mGluR8 Gi/Go-coupled signaling modulation – cell-based, rat, thallium flux, HTS, primary screen (AID 488969)
# Conditions: HEK293 rat mGluR8, GIRK (G protein-gated inwardly rectifying potassium channel) thallium flux, FluoZin2; at 10 µM; stronger effect = higher value; submaximal glutamate (EC20) added with thallium
row,Compound,z-score
1,COc1cccc(Cn2nnc(C(=O)NCCc3ccc(Cl)cc3)c2N)c1,0.0599
2,COc1cc(C(=O)OCC(=O)Nc2ccc(F)cc2F)cc(OC)c1OC,0.1
3,O=C(COc1ccc(Cl)cc1)N(Cc1ccccc1)c1nc(-c2ccccc2)cs1,-0.0577
4,CC(C)(C)SCCNC(=O)COc1ccccc1,0.707
5,O=C1C2CCCN2C(c2ccccc2F)N1c1ccc(F)cc1 (stereo not given),-0.00798
6,CO/N=C(/CS(=O)c1ccc(Br)cc1)c1ccc(OC)cc1 (stereo not given),-0.0555
7,COc1cc2nc(CN(CCC(C)C)Cc3nc4cc(OC)c(OC)cc4c(=O)[nH]3)[nH]c(=O)c2cc1OC,-0.253
8,Cc1cc(NC(=O)C2(c3ccccc3)CCCC2)no1,-0.898
9,CCOC(=O)c1cnc(Nc2nc3ccccc3o2)nc1CN1CCN(C)CC1,-0.276
10,O=C(NCc1cccnc1)c1cc(-c2ccco2)on1,0.308
11,O=c1c2ccccc2[nH]c(=S)n1CCCN1CCOCC1,0.0674
12,O=C(CSc1nnnn1-c1ccccc1)N1CCc2ccccc2C1,-0.487
13,COc1cccc(N/C(SCc2ccccc2F)=C(/C#N)C(=O)NCc2cccs2)c1,-0.192
14,CCN(C1CCCCC1)S(=O)(=O)c1cc(C)ccc1OC,-0.44
15,CCCC(=O)NNc1c2ccccc2nc2ccccc12,-0.0977
16,COc1cc(C)ccc1OCCCOc1ccccc1Cl,-0.109
17,COc1cccc(-n2c(Cc3cc(=O)[nH]c(=O)[nH]3)nnc2SCC(=O)N2CCC(C)CC2)c1,-0.226
18,O=C(COC(=O)CCc1c[nH]c2ccccc12)NC(c1ccccc1)c1ccccc1,-0.181
19,COc1ccccc1-n1c(C)cc(C=O)c1C,0.251
20,CCOC(=O)Cc1csc(NC(=O)CSc2nnnn2-c2ccc(C)c(C)c2)n1,0.0467
21,CCOC(=O)N1CCC(=NNC(=O)COc2ccc(C#N)cc2)CC1,-0.197
22,COC(=O)CCC(=O)NC(=S)Nc1sc(C)c(C)c1C(N)=O,-0.201

row,Compound,z-score
1,O=C(COC(=O)c1cncc(Br)c1)NCc1ccco1,0.135
2,Cc1cccc(NC(=O)Cn2c(=O)n(C)c3ccccc32)c1,0.24
3,Clc1ccc(-c2ccc(C=Nc3ccc(N4CCOCC4)cc3)o2)cc1,-0.0828
4,Cc1ccc(-n2c(SCC(=O)NCc3ccco3)nc3c(sc4ccccc43)c2=O)cc1,-0.175
5,COc1ccccc1NC(=S)N1CCc2cc(OC)c(OC)cc2C1,-0.933
6,COc1ccc(-c2nnc(NC(=O)C3=COCCO3)o2)cc1,0.731
7,Fc1ccc(CSc2ncnc3sc4c(c23)CCCC4)cc1,-0.0403
8,CC1(C)C2CCC1(C)C(OCC[N+](C)(C)CC(=O)OC1CCCCC1)C2 (stereo not given),0.441
9,CCN(CC)CCNC(=O)CCc1nn(C)c(=O)c2ccccc12,0.0546
10,CN(C)c1cccc(C(=O)OC(C(=O)Nc2ccc(Cl)cc2C(F)(F)F)c2ccccc2)c1 (stereo not given),-0.13
11,CCc1ccc(NC(=O)CSc2nnc(-c3cccs3)n2CC)cc1,-0.444
12,COc1ccccc1C(=O)N/C(=C/c1ccc(Br)cc1)C(=O)NCC(=O)O,-0.161
13,COc1cccc(C2CC(C(F)(F)F)n3ncc(C(=O)NCc4ccco4)c3N2)c1 (stereo not given),-0.434
14,O=c1nc2n(c3cc(Cl)c(S(=O)(=O)N4CCOCC4)cc13)CCCCC2,-0.49
15,C#CCSc1nncn1C(=O)/C=C/c1ccccc1,-0.494
16,COc1ccc(CNS(=O)(=O)c2cc(OCC(N)=O)c(C)cc2Cl)cc1,-0.146
17,O=C(COc1ccc(/C=N/NC(=O)C(=O)N2CCCCCC2)cc1)Nc1ccccc1Cl,-0.237
18,Cn1c(CO)cnc1SCc1ccccc1,-0.114
19,COc1cc(OC)cc(C(=O)Nc2nc(-c3ccccc3)c(-c3ccccc3)o2)c1,active: 3.64
20,O=C(CCCCl)NC(=S)Nc1cc(C(F)(F)F)ccc1N1CCOCC1,0.012
21,CSc1nc2nccc(/C=C\c3ccccc3)n2n1,-0.423
22,S=C(NC12CC3CC(CC(C3)C1)C2)N1CCCC1,-0.0857

row,Compound,z-score
1,O=C1c2ccccc2CCC1C(O)c1ccccn1 (stereo not given),0.411
2,Cc1c(NC(=O)CSc2nnnn2Cc2ccccc2)c(=O)n(-c2ccccc2)n1C,0.0435
3,C=CCSC1=N/C(=C\c2sccc2C)C(=O)S1,0.0432
4,Cc1ccc(Cn2cccc(-c3nc4ccccc4s3)c2=O)cc1,0.0523
5,N#C/C(C(=O)N1CCCCC1)=C1\Nc2ccccc2S1,0.512
6,Clc1ccccc1-c1nnc2sc(-c3ccc4c(c3)OCO4)nn12,active: -4.26
7,Cc1ccccc1N1CC(=O)N(c2ccccc2C)CC1=O,-0.0643
8,CN(CC(=O)N1CCCC1)S(=O)(=O)c1ccc(Cl)cc1,-0.073
9,OCCNc1nc(Nc2ccccc2)nc2ccccc12,-0.158
10,CCc1nc(NCCCn2ccnc2)c2oc3ccccc3c2n1,-0.732
11,Cc1cccc(N2CCN(C(=O)CCn3c(=S)[nH]c4cc5c(cc4c3=O)OCO5)CC2C)c1 (stereo not given),0.0286
12,Cc1cc(OCC(=O)N(C(C)C)C(C)C)cc(C)c1Br,-0.265
13,Cc1nnc(SCC(=O)NC(=O)NCc2ccco2)n1Cc1ccccc1,0.0176
14,C=CCn1cccc(/C=C/C(=O)c2ccc(C(C)(C)C)cc2)c1=S,0.0383
15,COc1cc(/C=C(\C#N)C(=O)Nc2ccc3ccccc3c2)c([N+](=O)[O-])cc1OC,0.349
16,O=C(COc1ccc(F)cc1)Nc1ccc(-n2cnnn2)cc1,-0.0711
17,Cc1nnc2c3ccccc3c(-c3cccc4ccccc34)nn12,-1.04
18,CN(C)/C=C(\C#N)C(=O)c1cccc(Oc2ccc(Br)cc2)c1,-0.258
19,CS(=O)(=O)N1CCc2cc(C(=O)N3CCCCC3)ccc21,0.267
20,C=CCn1c(COc2ccc(CC)cc2)nnc1SCC(=O)NC1CCS(=O)(=O)C1 (stereo not given),-0.512
21,O=C1CCSc2ccc(Cl)cc2N1Cc1cccc(Cl)c1,-0.497
22,COc1nccnc1NS(=O)(=O)c1ccc(NC(=S)NC(=O)/C=C/c2ccccc2)cc1,-0.279

row,Compound,z-score
1,COc1ccc(CN(C(=O)c2cnccn2)C(C(=O)NC(C)(C)C)c2cc(OC)c(OC)c(OC)c2)cc1 (stereo not given),-0.221
2,COc1ccc(-c2cc(C(=O)NN)[nH]n2)cc1,-0.174
3,C/C(CC(=O)Nc1cccc2c1CCCC2)=N\NC(=O)c1ccccc1N,2.22
4,O=C1C(C2=NC(C(=O)O)C3C(=O)N(c4ccccc4)C(=O)C23)=C(O)c2ccccc21 (stereo not given),0.46
5,N=c1n(CC(=O)c2ccc([N+](=O)[O-])cc2)c2ccccc2n1Cc1ccccc1Cl,0.471
6,CC(CC(=O)c1cccs1)CC(=O)c1cccs1,-0.476
7,CCC(=O)c1ccc(OCC(O)CN2CCCCC2)cc1 (stereo not given),-0.105
8,O=C(NC1CC2CCCC(C1)N2C(=O)Nc1ccccc1)c1ccncc1 (stereo not given),-0.146
9,CN(c1ccccc1C(=O)N1CCN(c2ccccc2)CC1)S(C)(=O)=O,0.478
10,CCn1c(SCC(=O)NNC(=S)Nc2ccc(C)cc2)nnc1-c1ccc(Cl)cc1,-0.351
11,Cc1ccc(-c2nc(S(=O)(=O)c3ccc(F)cc3)c(SCC(=O)NCC3CCCO3)o2)cc1 (stereo not given),-0.32
12,CN(C)CC(O)COc1cccc(OCC(O)CN(C)C)c1 (stereo not given),-0.132
13,Fc1ccc(CSc2nnc(-c3cccs3)o2)cc1,0.789
14,C/C(=N\NC(=O)c1c(Cl)c(C)nn1C)c1ccc(NC(=O)c2ccncc2)cc1,0.016
15,CC(C)n1c(O)c(N=NC(=O)c2ccccc2NS(=O)(=O)c2cccs2)c2ccccc21,-0.411
16,C=CCC(C)(NCc1ccccc1)c1ccc(C)cc1 (stereo not given),0.0269
17,CN(C)C(=O)COc1ccc2ccc(=O)oc2c1,-0.168
18,Cc1ccc(NC(=S)Nc2ccc(Cl)c(Cl)c2)c(OC(F)F)c1,active: 5.16
19,Cc1cc(C(=O)N/N=C/c2cccc([N+](=O)[O-])c2)c(C)n1-c1ccccc1,-0.213
20,COc1ccc2c(c1)c(=O)oc1cc(OCC(=O)N3CCCC(C)C3)ccc12 (stereo not given),-0.0927
21,CC(=O)N1N=C(c2cccc([N+](=O)[O-])c2)OC1c1ccccc1Cl (stereo not given),-0.453
22,Cc1cc(NC(=O)CSc2nc3ccccc3[nH]2)no1,0.304

row,Compound,z-score
1,CCN(CC)C(=O)C(=O)N/N=C/c1cccs1,-0.0972
2,Cc1c(C(=O)NCc2cccnc2)oc2ccc(S(=O)(=O)N3CCCCC3)cc12,1.3
3,COc1cc(NC(=O)/C=C/c2ccccc2[N+](=O)[O-])cc(OC)c1,1.28
4,O=C(CSc1cn(CCNC(=O)c2ccccc2)c2ccccc12)NCc1ccco1,-0.331
5,CCCCOC(=O)c1cc(=O)[nH]c2ccccc12,-0.426
6,O=C(CSc1nnc(CCCO)n1-c1ccccc1)NCCc1ccccc1,-0.0197
7,O=C(Nc1ccccc1)NC1CS(=O)(=O)CC1O (stereo not given),0.265
8,Cc1ccccc1N1CCN(c2ncnc3scc(-c4cccs4)c23)CC1,0.199
9,CCOC(=S)SCC(=O)N1CCc2cc(OC)c(OC)cc2C1C1C(=O)CC(C)(C)CC1=O (stereo not given),-0.189
10,C=CCNc1nc(N)c(C(=C(C#N)C#N)c2ccccc2)s1,0.741
11,COc1ccc(NC(=S)Nc2cc(S(=O)(=O)N3CCCCC3)ccc2OC)cc1,0.0265
12,CC12CCC(C(=O)NCc3ccccc3)(OC1=O)C2(C)C (stereo not given),-0.541
13,CSCC[C@@H](Nc1nc(-c2ccccc2)nc2c1oc1ccccc12)C(=O)O,-2.48
14,COCC(=O)OCC(=O)Nc1cc(C(C)(C)C)nn1-c1ccccc1,-0.0932
15,Cc1ccc(C(=O)N/C(=C\c2cccc([N+](=O)[O-])c2)C(=O)OCN2C(=O)c3ccccc3C2=O)cc1,-0.447
16,CC(=O)c1[nH]c(C)c(C(C)=O)c1C,-0.449
17,CCOC(=O)C1=C(C)NC(SCC(N)=O)=C(C#N)C1c1ccncc1 (stereo not given),-0.0596
18,Cc1ccccc1-c1cc(-c2ccccc2O)on1,-0.494
19,Cc1ccc(-c2n[nH]c(=S)n2/N=C/c2cccn2C)cc1,1.02
20,COc1ccc(S(=O)(=O)NN=C2CCCC2)cc1,-0.0847
21,CCC(=O)Nc1cccc(NC(=S)NC(=O)c2ccc(Cl)cc2)c1,0.0573
22,Cc1ccc2[nH]c(=O)c3cc(C(=O)N4CCN(C(=O)c5ccco5)CC4)sc3c2c1,-0.867
